Measurements taken from PubChem BioAssay AID463173 (ICCB-Longwood Screening Facility, Harvard Medical School, 2010).
The campaign covered roughly 52,000 compounds. About 4,300 (8.3%) were called active. Cut-off read from the data, not from the text of the source: active = survival mostly below about 52% (no sharp cut-off); inactive = mostly above about 56%. This is one part of the list.

Tested on: DeltatarO mutant
Test: growth inhibition of S. aureus wild type versus tarO mutant, primary screen, teichoic acid synthesis inhibitors, RN4220, OD600 (AID 463173)
Settings: OD600, 18 h, active compounds read low, screened at 18.75 µg/mL (by protocol)

Structure (SMILES) | survival
O=S(=O)(c1ccc2ccccc2c1)n1nc(-c2ccco2)nc1NCc1ccc(F)cc1 | inactive: 106%
Cc1cc(NC(=O)CCCn2c(C)c3cnn(-c4ccccc4)c(=O)c3c2C)ccc1Br | inactive: 71%
Cc1cc(C)cc(C(=O)N(Cc2nc(-c3ccc(Cl)cc3)no2)C(C)C)c1 | active: 14%
CCOc1ccccc1NC(=O)CN1C(=O)CC(c2ccco2)Sc2ccccc21 (centres undefined) | inactive: 83%
Cc1nc(-n2nc(C)c(Cc3ccccc3Cl)c2C)sc1C(=O)N1CCCCC1C (centres undefined) | inactive: 74%
Cc1ccc(NC(=O)c2ncn(-c3ccccc3)n2)cc1Cl | inactive: 63%
COc1ccc(NC(=O)c2oc3ccccc3c2NC(=O)c2cc(=O)c3c(C)cc(C)cc3o2)cc1 | inactive: 69%
Cc1ccccc1C(C(=O)Nc1ccc(F)cc1)N(Cc1ccco1)C(=O)Cn1nnc2ccccc21 (centres undefined) | inactive: 107%
COc1ccc(-c2nc(C(=O)Nc3cccc(C(C)=O)c3)nn2-c2ccc(Cl)cc2)cc1 | inactive: 99%
Cc1ccc(NC(=O)CS(=O)(=O)c2nc(-c3ccc(C)cc3)cn2-c2ccc(C)cc2)cc1 | inactive: 73%
CCCCN(C)CCNC(=O)c1cc(=O)[nH]c2ccc(S(=O)(=O)N3CCCCCC3)cc12 | inactive: 75%
Cc1ccc(CNC(=O)c2cnc(N(C)C)nc2)cc1 | inactive: 104%
C#CC(C)(CC)NC(=O)Cn1nnc(-c2ccc(OCc3ccccc3F)cc2)n1 (centres undefined) | inactive: 73%
COc1ccc(COC(=O)c2[nH]c3c(c2C)C(=O)CC(c2ccc(OC)c(OC)c2)C3)cc1 (centres undefined) | inactive: 80%
CC1CCCC(C)N1C(=O)Cn1c(SCC(=O)NCc2ccco2)nc2ccccc21 (centres undefined) | inactive: 82%
CCOc1ccccc1NC(=O)CC1C(=O)NCCN1C(=O)c1ccc(F)cc1 (centres undefined) | inactive: 91%
CCC(C(=O)O)C(C)CC(=O)Nc1ccccc1Cl (centres undefined) | inactive: 81%
COc1ccc(OC)c(Nc2nc3ccccc3n3c(C)nnc23)c1 | inactive: 101%
Cc1ccc(-n2ncc(C(=O)NC3CCCC3)c2C2CCN(C(=O)OC(C)(C)C)CC2)c(C)c1 | inactive: 70%
CS(=O)(=O)c1ncc(N(Cc2ccco2)Cc2ccco2)c(C(=O)Nc2ccccc2Br)n1 | inactive: 53%
CC1=C(C(=O)OCc2ccc(C)cc2)C(c2c(Cl)cccc2Cl)CC(=O)N1 (centres undefined) | inactive: 70%
Cc1ccc(C)c(NS(=O)(=O)c2ccc3c4c(cccc24)C(=O)N3)c1 | active: 52%
CNc1nc(Oc2ccc(=O)n(C)n2)nc(N2CCOCC2)n1 | inactive: 79%
COCCCNC(=O)c1cc2n(n1)CCCN(Cc1ccc(C)cc1)C2=O | inactive: 84%
